Measurements from PMC12136788.
This is one part of the list.

B1: chr1:6324473:6324474:-_ENSG00000097021_ENST00000608083|hu_hu|FALSE|FALSE (ssRNA)
RNA: GGGAGUUCUACAGUCCGACGAUCCAACGCCUCCCGGCGCUCGGGACAACACUGUGUAGCAUUGAUACUGGAAUGAUAUAAAUAAAGCUUUGGUGUGUAGGUUUGCAGGAGAGAGUACAGGUUAACACUGUGAUACGAAAACUUCAACAGAGGAUUGAGCAUCA
B2: chr2:42510052:42510053:+_ENSG00000143924_ENST00000318522|hu_mus|motif|central (ssRNA)
RNA: GGGAGUUCUACAGUCCGACGAUCACAGUCUGUAUGACCCAGGUAGUGUCGCUGAGUCCUCUCCUCAUAAUUAAACAGGACGGCCACUGAGGCGAUAAAAUAAACUAUCUCCCCUGUGGGAAGCAGGUAUACAUUCGCUCUACACAACAGAGGAUUGAGCAUCA
B3: chr12:17277247:17277248:+_ENSMUSG00000020571_ENSMUST00000057288|mus_mus|FALSE|FALSE (ssRNA)
RNA: GGGAGUUCUACAGUCCGACGAUCAAUUUGAUGGCGUCAACUCGAUGACAUCAUCACUAGAAGAAUACAGACCGCUGACUGCUAGAAAGAAGGUGCAGCUCACCAGACCGAGCACCAGGCGAGCCAUGCCGAUCACCCGCAUUCCAACAGAGGAUUGAGCAUCA
B4: chr8:126036873:126036874:-_ENSG00000164961_ENST00000318410|hu_hu|motif|central (ssRNA)
RNA: GGGAGUUCUACAGUCCGACGAUCAUGAGCAACUGAGUUUCUUUUCAUCUUCAAAUUCAUUUGUGAUGGUGGGAAGAUCGGAGGACAAUCCUUCCAUUGAAGAAGUAGGAAAAACAGUUACAGCACUGUUCUGAACUCAUCAAACAACAGAGGAUUGAGCAUCA
B5: chr7:16573483:16573484:-_ENSMUSG00000070808_ENSMUST00000094821|mus_mus|FALSE|FALSE (ssRNA)
RNA: GGGAGUUCUACAGUCCGACGAUCUGGUGCUGCAGCUGUGAGGAUCUGGCCUCCCACGUUGGCAGGCAGUGCAGAGAGUGACUGAGGGAGUUGUACGGCUGGGGUGCCUGGCAGCAAGAACUGGUUCUGGCCAGGCAGCAUGUGCAACAGAGGAUUGAGCAUCA
B6: 133248640_133250631_109_3pUTR_ENSMUSG00000000131_ENSMUST00000171861|mouse|control|control (ssRNA)
RNA: GGGAGUUCUACAGUCCGACGAUCUCAGAGUCUCCAAGUAGAAGAGAUUUUGUUUGAACAGGUGGAUGUCAGGCUGAAGAAAGGACUGUCCAAAAGCCUGCAUGAUGGCACUGAACUGGGGCUCAUUCUCCAUCUGCUCCUCAGCAACAGAGGAUUGAGCAUCA

What follows are binders tested against T1, UNK ZnF1-3 (human, UniProt Q9C0B0 31-174) (assay: nsRBNS (natural sequence RNA bind-n-seq); RBNS binding buffer (assumed for nsRBNS): 25 mM Tris pH 7.5, 150 mM KCl, 3 mM MgCl2, 0.01% Triton X-100, 500 ug/ml BSA, 20 U/ml SUPERase-In, 4 C; UNK is unkempt and MSI1 is Musashi-1; names of the RNAs are library labels; protein concentration not given here; high values mean tight binding).
T1 sequence: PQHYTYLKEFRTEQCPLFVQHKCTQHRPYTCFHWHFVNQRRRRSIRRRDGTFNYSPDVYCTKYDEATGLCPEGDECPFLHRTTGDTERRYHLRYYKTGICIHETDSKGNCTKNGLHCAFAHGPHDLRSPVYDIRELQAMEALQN
Work on B1 yielded a binding signal of 1.38 enrichment R.
In the case of B2, the binding signal is reported as 1.08 enrichment R.
Work on B3 yielded a binding signal of 0.986 enrichment R.
With B4 the binding signal was 1.13 enrichment R.
With B5 the binding signal was 0.949 enrichment R.
B6 was tested, and the binding signal was 0.988 enrichment R.
